# Some of the results follow.
# B1: Tamarinin (protein)
# chain: CDDSARAGNIVVYWGQGGSDNSEGSLKEACKSGHYNMIVLQQLIVYDDGRDPDLNLGAHCSDCTKLEEQIKYCQNKDIKILLQIGQVVPTQEDVKDVTKNLSEYLLKNFFSGKSGPLGEVYLNGIDIASVPEGNNLKFDELVEALNDSSTERRIYLSASPLCVYPDYYLNKAIQTEKLDFLFVQFFYQNPCIYTEGNPENLFEAMKTWTKNVPESMIFMALPATPNLDGYIPPRVLNKEILPAVSEASNFAGVMIFDRYFDRFRKYSSKIK
# Assays:
# Experiment in all cases: glycan array binding signal (z-score within array); higher = stronger binding
# Conditions in all cases: glycan notation: IUPAC condensed, linker removed
# [1] = biological target: Fuc(a1-2)[GalNAc(a1-3)]Gal(b1-3)GlcNAc(b1-6)GalNAc
# How it was run: (§1)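 Columns mapping to the same glycan were averaged after glycan names were converted to IUPAC-condensed notation. The data come from 3228 arrays in the Consortium for Functional Glycomics database, limited to those with an available protein sequence. Binding is reported as a within-array Z-score averaged across arrays of one protein sequence and across linkers.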
# [2] = biological target: Fuc(a1-2)[GalNAc(a1-3)]Gal(b1-4)Glc
# How it was run: as §1
# [3] = biological target: Fuc(a1-2)[GalNAc(a1-3)]Gal(b1-4)GlcNAc
# How it was run: as §1
# [4] = biological target: Fuc(a1-2)[GalNAc(a1-3)]Gal(b1-4)GlcNAc(b1-2)Man
# How it was run: as §1
# [5] = biological target: Fuc(a1-2)[GalNAc(a1-3)]Gal(b1-4)GlcNAc(b1-2)Man(a1-3)[Fuc(a1-2)[GalNAc(a1-3)]Gal(b1-4)GlcNAc(b1-2)Man(a1-6)]Man(b1-4)GlcNAc(b1-4)GlcNAc
# How it was run: as §1
# [6] = biological target: Fuc(a1-2)[GalNAc(a1-3)]Gal(b1-4)GlcNAc(b1-2)Man(a1-3)[Fuc(a1-2)[GalNAc(a1-3)]Gal(b1-4)GlcNAc(b1-2)Man(a1-6)]Man(b1-4)GlcNAc(b1-4)[Fuc(a1-6)]GlcNAc
# How it was run: as §1
# [7] = biological target: Fuc(a1-2)[GalNAc(a1-3)]Gal(b1-4)GlcNAc(b1-3)Gal(b1-4)GlcNAc
# How it was run: as §1
# [8] = biological target: Fuc(a1-2)[GalNAc(a1-3)]Gal(b1-4)GlcNAc(b1-3)Gal(b1-4)GlcNAc(b1-3)Gal(b1-4)GlcNAc
# How it was run: as §1
# [9] = biological target: Fuc(a1-2)[GalNAc(a1-3)]Gal(b1-4)GlcNAc(b1-3)GalNAc
# How it was run: as §1
# [10] = biological target: Fuc(a1-2)[GalNAc(a1-3)]Gal(b1-4)GlcNAc(b1-3)[Fuc(a1-2)[GalNAc(a1-3)]Gal(b1-4)GlcNAc(b1-6)]GalNAc
# How it was run: as §1
# [11] = biological target: Fuc(a1-2)[GalNAc(a1-3)]Gal(b1-4)GlcNAc(b1-6)GalNAc
# How it was run: as §1
# [12] = biological target: Fuc(a1-2)[GalNAc(a1-3)]Gal(b1-4)[Fuc(a1-3)]GlcNAc
# How it was run: as §1
# [13] = biological target: Fuc(a1-2)[GalNAc(a1-3)]Gal(b1-4)[Fuc(a1-3)]GlcNAc(b1-3)GalNAc
# How it was run: as §1
# [14] = biological target: Fuc(a1-2)[GalNAc(a1-4)]Gal(b1-4)GlcNAc
# How it was run: as §1
# [15] = biological target: Fuc(a1-2)[GalNAc(b1-3)]Gal
# How it was run: as §1
# [16] = biological target: Fuc(a1-3)GlcNAc
# How it was run: as §1
# [17] = biological target: Fuc(a1-3)[Gal(b1-4)]Glc6S
# How it was run: as §1
# [18] = biological target: Fuc(a1-3)[Gal(b1-4)]GlcNAc
# How it was run: as §1
# [19] = biological target: Fuc(a1-3)[Gal(b1-4)]GlcNAc(b1-2)Man
# How it was run: as §1
# [20] = biological target: Fuc(a1-3)[Gal(b1-4)]GlcNAc(b1-2)Man(a1-3)[Fuc(a1-3)[Gal(b1-4)]GlcNAc(b1-2)Man(a1-6)]Man(b1-4)GlcNAc(b1-4)GlcNAc
# How it was run: as §1
# [21] = biological target: Fuc(a1-3)[Gal(b1-4)]GlcNAc(b1-2)Man(a1-3)[Fuc(a1-3)[Gal(b1-4)]GlcNAc(b1-2)Man(a1-6)]Man(b1-4)GlcNAc(b1-4)[Fuc(a1-6)]GlcNAc
# How it was run: as §1
# [22] = biological target: Fuc(a1-3)[Gal(b1-4)]GlcNAc(b1-3)Gal(b1-3)[Fuc(a1-4)]GlcNAc
# How it was run: as §1
# [23] = biological target: Fuc(a1-3)[Gal(b1-4)]GlcNAc(b1-3)Gal(b1-4)[Fuc(a1-3)]GlcNAc
# How it was run: as §1
# [24] = biological target: Fuc(a1-3)[Gal(b1-4)]GlcNAc(b1-3)Gal(b1-4)[Fuc(a1-3)]GlcNAc(b1-3)Gal(b1-4)[Fuc(a1-3)]GlcNAc
# How it was run: as §1
# [25] = biological target: Fuc(a1-3)[Gal(b1-4)]GlcNAc(b1-3)GalNAc
# How it was run: as §1
# [26] = biological target: Fuc(a1-3)[Gal(b1-4)]GlcNAc(b1-6)GalNAc
# How it was run: as §1
# [27] = biological target: Fuc(a1-3)[Gal(b1-4)]GlcNAc(b1-6)[Gal(b1-3)GlcNAc(b1-3)]Gal(b1-4)Glc
# How it was run: as §1
# [28] = biological target: Fuc(a1-3)[Gal(b1-4)]GlcNAc6S
# How it was run: as §1
# [29] = biological target: Fuc(a1-3)[Gal3S(b1-4)]Glc
# How it was run: as §1
# [30] = biological target: Fuc(a1-3)[Gal3S(b1-4)]GlcNAc
# How it was run: as §1
# [31] = biological target: Fuc(a1-3)[Gal3S(b1-4)]GlcNAc6S
# How it was run: as §1
# [32] = biological target: Fuc(a1-3)[GalNAc(b1-4)]GlcNAc
# How it was run: as §1
# [33] = biological target: Fuc(a1-3)[GalNAc(b1-4)]GlcNAc6S
# How it was run: as §1
# [34] = biological target: Fuc(a1-4)GlcNAc
# How it was run: as §1
# [35] = biological target: Fuc(b1-3)GlcNAc
# How it was run: as §1
# [36] = biological target: Gal(a1-2)Gal
# How it was run: as §1
# [37] = biological target: Gal(a1-3)Gal
# How it was run: as §1
binder,measurement,setting,value
B1,glycan array binding signal (z-score),[1],0.013
same,glycan array binding signal (z-score),[2],-0.388
same,glycan array binding signal (z-score),[3],-0.415
same,glycan array binding signal (z-score),[4],-0.302
same,glycan array binding signal (z-score),[5],-0.458
same,glycan array binding signal (z-score),[6],1.07
same,glycan array binding signal (z-score),[7],-0.314
same,glycan array binding signal (z-score),[8],0.586
same,glycan array binding signal (z-score),[9],-0.143
same,glycan array binding signal (z-score),[10],0.2
same,glycan array binding signal (z-score),[11],-0.364
same,glycan array binding signal (z-score),[12],0.192
same,glycan array binding signal (z-score),[13],0.879
same,glycan array binding signal (z-score),[14],-0.445
same,glycan array binding signal (z-score),[15],-0.493
same,glycan array binding signal (z-score),[16],-0.368
same,glycan array binding signal (z-score),[17],0.284
same,glycan array binding signal (z-score),[18],-0.22
same,glycan array binding signal (z-score),[19],-0.045
same,glycan array binding signal (z-score),[20],-0.312
same,glycan array binding signal (z-score),[21],-0.308
same,glycan array binding signal (z-score),[22],-0.377
same,glycan array binding signal (z-score),[23],0.223
same,glycan array binding signal (z-score),[24],-0.263
same,glycan array binding signal (z-score),[25],-0.115
same,glycan array binding signal (z-score),[26],-0.129
same,glycan array binding signal (z-score),[27],-0.178
same,glycan array binding signal (z-score),[28],-0.14
same,glycan array binding signal (z-score),[29],-0.199
same,glycan array binding signal (z-score),[30],-0.223
same,glycan array binding signal (z-score),[31],-0.15
same,glycan array binding signal (z-score),[32],-0.154
same,glycan array binding signal (z-score),[33],0.982
same,glycan array binding signal (z-score),[34],-0.282
same,glycan array binding signal (z-score),[35],-0.048
same,glycan array binding signal (z-score),[36],-0.001
same,glycan array binding signal (z-score),[37],-0.391

# From the supplement of paper PMC8728848
